# Experimental data taken from the supplement of paper PMC8728848.
# The list shows a part of the results.
# Experiments:
# Experiment in all cases: glycan array binding signal (z-score within array); higher = stronger binding
# Details in all cases: glycan notation: IUPAC condensed, linker removed
# [1] = biological target: Gal(b1-4)GlcNAc(b1-3)Gal(b1-4)GlcNAc(b1-3)[Gal(b1-4)GlcNAc(b1-3)Gal(b1-4)GlcNAc(b1-6)]GalNAc
# Summary of the method: (§1)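 Glycan array data were curated from 3228 arrays in the Consortium for Functional Glycomics database and kept only where the protein sequence was available. Glycan names were converted to IUPAC-condensed notation, and columns mapping to the same glycan were averaged. The binding signal is a within-array Z-score, averaged across arrays of the same protein sequence at different concentrations or buffers and across linkers. Negative Z-scores can be read as non-binding.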
# [2] = biological target: Gal(b1-4)GlcNAc(b1-3)Gal(b1-4)GlcNAc(b1-6)[Gal(b1-3)]GalNAc
# Summary of the method: as §1
# [3] = biological target: Gal(b1-4)GlcNAc(b1-3)Gal(b1-4)[Fuc(a1-3)]GlcNAc(b1-3)Gal(b1-4)[Fuc(a1-3)]GlcNAc
# Summary of the method: as §1
# [4] = biological target: Gal(b1-4)GlcNAc(b1-3)GalNAc
# Summary of the method: as §1
# [5] = biological target: Gal(b1-4)GlcNAc(b1-3)[Fuc(a1-3)GlcNAc(b1-6)]Gal(b1-4)Glc
# Summary of the method: as §1
# [6] = biological target: Gal(b1-4)GlcNAc(b1-3)[Gal(b1-4)GlcNAc(b1-6)]Gal(b1-4)GlcNAc
# Summary of the method: as §1
# [7] = biological target: Gal(b1-4)GlcNAc(b1-3)[Gal(b1-4)GlcNAc(b1-6)]GalNAc
# Summary of the method: as §1
# [8] = biological target: Gal(b1-4)GlcNAc(b1-3)[GlcNAc(b1-6)]Gal(b1-4)GlcNAc
# Summary of the method: as §1
# [9] = biological target: Gal(b1-4)GlcNAc(b1-6)Gal(b1-4)GlcNAc
# Summary of the method: as §1
# [10] = biological target: Gal(b1-4)GlcNAc(b1-6)Gal(b1-4)GlcNAc(b1-6)GalNAc
# Summary of the method: as §1
# [11] = biological target: Gal(b1-4)GlcNAc(b1-6)GalNAc
# Summary of the method: as §1
# [12] = biological target: Gal(b1-4)GlcNAc(b1-6)[Gal(b1-3)]GalNAc
# Summary of the method: as §1
# [13] = biological target: Gal(b1-4)GlcNAc(b1-6)[Gal(b1-3)]GlcNAc
# Summary of the method: as §1
# [14] = biological target: Gal(b1-4)GlcNAc(b1-6)[Gal(b1-4)GlcNAc(b1-3)]GalNAc
# Summary of the method: as §1
# Gal(b1-4)GlcNAc6P = biological target: Gal(b1-4)GlcNAc6P
# Summary of the method: as §1
# Gal(b1-6)Gal = biological target: Gal(b1-6)Gal
# Summary of the method: as §1
# Gal3S(b1-3)GalNAc = biological target: Gal3S(b1-3)GalNAc
# Summary of the method: as §1
# Gal3S(b1-3)GlcNAc = biological target: Gal3S(b1-3)GlcNAc
# Summary of the method: as §1
# [15] = biological target: Gal3S(b1-3)[Fuc(a1-4)]GlcNAc
# Summary of the method: as §1
# Gal3S(b1-4)Glc = biological target: Gal3S(b1-4)Glc
# Summary of the method: as §1
# Gal3S(b1-4)Glc6S = biological target: Gal3S(b1-4)Glc6S
# Summary of the method: as §1
# Gal3S(b1-4)GlcNAc = biological target: Gal3S(b1-4)GlcNAc
# Summary of the method: as §1
# Gal3S(b1-4)GlcNAc6S = biological target: Gal3S(b1-4)GlcNAc6S
# Summary of the method: as §1
binder,measurement,setting,value
"LTL (Lotus tetragonolobus), P19664 (protein) VSFNYTEFKDDGSLILQGDAKIWTDGRLAMPTDPLVNNPKTTRSAGRALYATPVPIWDSATGNVASFVTSFNFLFVIRELKYTPTDGLVFFLAPVGTEIPSGSTGGFLGIFDGSNGFNQFVAVEFDSYHNIWDPKSLRSSHVGIDVNSIMSLKAVNWNRVSGSLEKATIIYDSQTNILSVVMTSQNGQITTIYGTIDLKTVLPEKVSVGFSATTGNPEREKHDIYSWSFTSTLKEPEEQA",glycan array binding signal (z-score),[1],2.93
same,glycan array binding signal (z-score),[2],1.81
same,glycan array binding signal (z-score),[3],-0.19
same,glycan array binding signal (z-score),[4],-0.066
same,glycan array binding signal (z-score),[5],0.503
same,glycan array binding signal (z-score),[6],-0.166
same,glycan array binding signal (z-score),[7],-0.135
same,glycan array binding signal (z-score),[8],-0.213
same,glycan array binding signal (z-score),[9],-0.037
same,glycan array binding signal (z-score),[10],-0.316
same,glycan array binding signal (z-score),[11],-0.113
same,glycan array binding signal (z-score),[12],0.031
same,glycan array binding signal (z-score),[13],-0.544
same,glycan array binding signal (z-score),[14],-0.202
same,glycan array binding signal (z-score),Gal(b1-4)GlcNAc6P,0.005
same,glycan array binding signal (z-score),Gal(b1-6)Gal,-0.216
same,glycan array binding signal (z-score),Gal3S(b1-3)GalNAc,-0.003
same,glycan array binding signal (z-score),Gal3S(b1-3)GlcNAc,-0.263
same,glycan array binding signal (z-score),[15],-0.057
same,glycan array binding signal (z-score),Gal3S(b1-4)Glc,-0.155
same,glycan array binding signal (z-score),Gal3S(b1-4)Glc6S,0.003
same,glycan array binding signal (z-score),Gal3S(b1-4)GlcNAc,-0.248
same,glycan array binding signal (z-score),Gal3S(b1-4)GlcNAc6S,0.673
